Assay results as given in the supplement of paper PMC4967469.
pIC50: −log10 of the molar value. IC50 is the fitted dose that halves viability relative to control wells, and lower means more sensitive; where the fit passes the top or lowest dose, that dose stands as a limit. For AUC the same curve is integrated over the 256-fold range of doses and scaled to a fraction; the more sensitive the line, the further below 1. For part of these data: The top dose, if marked as inferred, is not printed in the source and was worked back from the curve model.

What was measured:
Experiment in all cases: Viability of human cancer cell lines after 72 h of drug (GDSC screen)
[1] = compound: CO[C@H]1C[C@@H]2CC[C@@H](C)[C@@](O)(O2)C(=O)C(=O)N2CCCC[C@H]2C(=O)O[C@H]([C@H](C)C[C@@H]2CC[C@@H](OC(=O)C(C)(CO)CO)[C@H](OC)C2)CC(=O)[C@H](C)/C=C(\C)[C@@H](O)[C@@H](OC)C(=O)[C@H](C)C[C@H](C)/C=C/C=C/C=C/1C [Temsirolimus]; conditions: top dose 0.2 µM
Description: (§1)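 Human cancer cell lines in 384-well plates, medium with 10% serum, drug for 72 h over a 256-fold dose range (nine 2-fold or five 4-fold steps up to the top dose). Adherent lines were fixed and stained with the nucleic acid dye Syto60, suspension lines read with resazurin; signal relative to control wells, capped at 0 and 100%. One two-parameter sigmoid per drug and line, fitted in a mixed model over all curves with the slope shared within a line.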

[2] = compound: C=CC(=O)Nc1ccc(C(=O)c2sc(Nc3ccc(N4CCN(C)CC4)cc3OC)nc2N)cc1 [XMD15-27]; conditions: top dose 10.24 µM; top dose inferred
Description: as §1

[3] = compound: CC(=O)O[C@@H]1[C@@H](OC(C)=O)[C@@H](O)[C@H](Oc2c(-c3ccc(O)cc3)oc3cc(O)cc(O)c3c2=O)O[C@H]1C [SL 0101-1]; conditions: top dose 10 µM; top dose inferred
Description: as §1

Cell Line	AUC [1]	pIC50 [1]	AUC [2]	pIC50 [2]	AUC [3]	pIC50 [3]
LN-18 (glioma, adherent)	0.849	6.97	0.992	< 4.99	0.994	< 5.00
LN-229 (glioma, adherent)	0.865	6.75	0.988	< 4.99	0.984	< 5.00
LN-405 (glioma, adherent)	0.699	7.27	0.984	< 4.99	0.941	< 5.00
LNZTA3WT4 (glioma, adherent)	0.851	6.83	0.989	< 4.99	0.989	< 5.00
LOU-NH91 (lung squamous cell carcinoma, adherent)	0.723	7.24	0.984	< 4.99	0.986	< 5.00
LP-1 (myeloma, suspension)	0.988	< 6.70	0.993	< 4.99	0.989	< 5.00
LS-180 (large intestine, adherent)	0.93	< 6.70	0.985	< 4.99	0.954	< 5.00
LS-411N (large intestine, adherent)	0.964	< 6.70	0.973	< 4.99	0.978	< 5.00
LS-513 (large intestine, adherent)	0.952	< 6.70	0.981	< 4.99	0.987	< 5.00
LS-1034 (large intestine, adherent)	0.948	< 6.70	0.986	< 4.99	0.978	< 5.00
LU-134-A (small cell lung carcinoma, suspension)	0.928	< 6.70	0.98	< 4.99	0.984	< 5.00
LU-135 (small cell lung carcinoma, suspension)	0.968	< 6.70	0.962	< 4.99	0.992	< 5.00
LU-139 (small cell lung carcinoma, suspension)	0.654	7.42	0.982	< 4.99	0.869	< 5.00
LU-165 (small cell lung carcinoma, suspension)	0.972	< 6.70	0.986	< 4.99	0.982	< 5.00
LXF-289 (lung adenocarcinoma, adherent)	0.591	7.66	0.984	< 4.99	0.982	< 5.00
LoVo (large intestine, adherent)	0.93	< 6.70	0.98	< 4.99	0.953	< 5.00
M059J (glioma, adherent)	0.688	7.35	0.985	< 4.99	0.983	< 5.00
MC116 (B-cell lymphoma, suspension)	0.999	< 6.70	0.999	< 4.99	0.999	< 5.00
MC-CAR (haematopoietic neoplasm, suspension)	0.571	7.72	0.96	< 4.99	0.953	< 5.00
MC-IXC (neuroblastoma, adherent)	0.984	< 6.70	0.996	< 4.99	0.996	< 5.00
MDA-MB-330 (breast, adherent)	0.551	7.76	0.986	< 4.99	0.986	< 5.00
MDA-MB-361 (breast, adherent)	0.726	7.26	0.985	< 4.99	0.988	< 5.00
MDA-MB-415 (breast, adherent)	0.603	7.58	0.983	< 4.99	0.983	< 5.00
MDA-MB-436 (breast, adherent)	0.773	7.00	0.984	< 4.99	0.984	< 5.00
MDA-MB-453 (breast, adherent)	0.925	< 6.70	0.935	< 4.99	0.976	< 5.00
MDST8 (large intestine, adherent)	0.269	8.56	0.988	< 4.99	0.986	< 5.00
ME-1 (acute myeloid leukaemia, suspension)	0.945	< 6.70	0.989	< 4.99	0.971	< 5.00
ME-180 (cervix, adherent)	0.588	7.66	0.967	< 4.99	0.982	< 5.00
